One assay relates to undifferentiated hESCs. The assay can be described thus: NAM induction of undifferentiated hESCs maintained in the defined culture (cardiac induction). In kind it is cell-based, human. The text has this:
In order to achieve uniformly conversion of pluripotent hESCs to a lineage-specific fate, I have used the defined culture system to screen the differentiation inducing effect of a variety of small molecules and growth factors on the pluripotent state of hESCs. […] (FIGS. 1-5). […] (FIGS. 1-3).
(Stage 1—Human Cardiomesodermal Cells) (FIGS. 1; 2a, b). […] (FIGS. 1; 3a). […] (FIGS. 1, 3b). […] (FIG. 3b). […] (FIG. 3c). Cardiac specific transcription factor (Csx) Nkx2.5 is an evolutionally conserved homeobox transcription factor indispensable for normal cardiac development. The onset and pattern of early Nkx2.5 expression roughly coincide with the timing and area of cardiac specification, and Nkx2.5 gene continues to be expressed through development in the heart. Expression of Nkx2.5 is the earliest marker for heart precursor cells in all vertebrates so far examined and is essential for proper cardiac septation and formation/maturation of electrical conduction system.

In assay [1] the test system is hESCs maintained on feeders; hESC-differentiated EBs. The assay can be described thus: Small molecule treatment of hESCs on feeder cells / conditioned media or of embryoid bodies. In kind it is cell-based, human. The following applies: EBs or feeder conditions. The text has this:
In order to achieve uniformly conversion of pluripotent hESCs to a lineage-specific fate, I have used the defined culture system to screen the differentiation inducing effect of a variety of small molecules and growth factors on the pluripotent state of hESCs. […] (FIGS. 1-5). Similarly, the defined platform renders NAM sufficient to induce the specification of cardiomesoderm direct from the pluripotent state of hESCs by promoting the expression of the earliest cardiac-specific transcription factor Csx/Nkx2.5 and triggering progression to cardiac precursors and beating cardiomyocytes efficiently (FIGS. 1-3).

As for `NC(=O)c1cccnc1` [NAM, nicotinamide], in the assay with undifferentiated hESCs (NAM (10 mM), defined culture), the “expression of cardiac marker Csx/Nkx2.5” value is recorded as “began expressing the earliest marker for heart precursor, Csx/Nkx2.5”. Moreover, the “retention of strong contractility of the cardiomyocytes” value in the assay with undifferentiated hESCs (NAM-induced cardiomyocytes) was “over 3 months”. Besides, the “cardiac induction when applied to EBs or hESCs on feeder cells / conditioned media” value in assay [1] is given as “not sufficient”.

For the origin of these results see US9428731B2, “Technologies, methods, and products of small molecule directed tissue and organ regeneration from human pluripotent stem cells” (San Diego Regenerative Medicine Institute, priority 2010, dated 2016).
